# From PubChem BioAssay AID686978 (National Center for Advancing Translational Sciences (NCATS), 2013)
# Values joined by “and” are separate entries in the source; they are usually repeats but may differ in a detail not shown here. Identical values can stand only once. Hit rate of the full screen: of about 420,000 compounds, about 64,000 (15%) were called active. This list was built around the results that the source calls inconclusive (neither active nor inactive); the mix of calls is not that of the screen. The call rests on the fitted dose curve; in most records, active means well fitted inhibition curve with a large enough effect; inconclusive means small, poorly fitted or top-dose-only effect; inactive means flat fitted curve, though single readings scatter. Potencies of inconclusive entries are left out as doubtful fits. The source holds several records for some structures; these can differ, active in one and inactive in another.
# Assay: qHTS for Inhibitors of human tyrosyl-DNA phosphodiesterase 1 (TDP1): qHTS in cells in absence of CPT; further: nearly all actives have a fitted effect of over 55% in size
# Conditions: DT40 Tdp1-/- hTDP1 cells, no CPT, ATP luminescence, 48 h; activity change, negative = growth inhibition: at 46.2 µM (top of the series) unless noted
# Outline: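 Readout: luminescence from CellTiter-Glo after 30 min in the dark at RT. Cells: DT40 Tdp1-/- with stable hTDP1, 400/well. Exposure: compounds alone, ≥48 hr, 37 °C.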
# On the % scale 0 is the no-effect control and ±100 the full control effect; potency means the concentration at half of the fitted maximal effect; tags describe the fitted curve by direction and shape.
Structure (SMILES),"activity change, negative = growth inhibition",Potency
Nc1nnc(SCC(=O)OCC(=O)Nc2ccc(Br)cc2F)s1,inconclusive: -32.2% [inhibitor],–
Cc1ccc(NC(=O)CSc2nc3ccc(Br)cc3[nH]2)c(C)c1,–,"inconclusive [inhibitor, single point]"
CC(C(=O)Nc1ccc(Cl)cc1)c1ncc(C(F)(F)F)cc1Cl (stereo not drawn),–,"inconclusive [inhibitor, partial curve]"
Cc1ccc(N2CC(C(=O)NCCS(=O)(=O)N3CCN(c4ccccc4F)CC3)CC2=O)cc1 (stereo not drawn),–,"inconclusive [inhibitor, single point]"
CN(Cc1ccccc1)C(=S)NC(=O)c1ccccc1,–,"inconclusive [inhibitor, single point]"
COc1cc(NC(=O)CN2CCCCC2)c(C)cc1[N+](=O)[O-],–,inactive
CC(=O)N1CCN(S(=O)(=O)c2cccc(C(=O)Nc3ccc(OC(F)F)cc3)c2)CC1,–,"inconclusive [inhibitor, single point]"
COc1ccccc1CNC(=O)CC(C)c1ccccc1 (stereo not drawn),–,inactive
Cc1cccc(NC(=O)CSc2nc3ccccc3nc2N2CCC(C)CC2)c1,–,active: 20.6 µM
CCOc1ccc(N(Cc2ccccc2)C(=O)c2nc(SCC)ncc2Cl)cc1,–,active: 6.51 µM
Cc1nc2c3ccccc3nc(NNC(=O)CCC(=O)N3CCN(c4cccc(Cl)c4)CC3)n2n1,–,"inconclusive [inhibitor, single point]"
O=C(COc1ccc(F)cc1)Nc1nnc(S(=O)(=O)N2CCc3ccccc32)s1,–,"inconclusive [inhibitor, single point]"
O=[N+]([O-])c1cc2no[n+]([O-])c2cc1N1CCCCC1,–,active: 0.92 µM
Cc1ccc(S(=O)(=O)NCC(=O)N(CC(=O)NC(C)(C)C)Cc2cccs2)cc1,inconclusive: -26.7% [inhibitor],–
CC1CCN(C(=O)CSc2c3c(nc4ccc(Cl)cc24)CCCC3)CC1,–,active: 16.4 µM
CCN(CC(O)Cn1c2ccccc2c2ccccc21)S(=O)(=O)c1ccc(F)cc1 (stereo not drawn),–,"inconclusive [inhibitor, single point]"
O=C(CN1C(=O)NC2(CCCC2)C1=O)OCc1c(F)cccc1Cl,–,inactive
CN(C)CCN(C(=O)c1ccco1)c1nc2c(F)cc(F)cc2s1,–,"inconclusive [inhibitor, single point]"
CCOc1ccc2nc(SCC(=O)c3ccc(C)s3)sc2c1,–,"inconclusive [inhibitor, single point]"
CN(CC(=O)Nc1ccc(N2CCOCC2)cc1)C(=O)c1ccc(CS(C)(=O)=O)cc1,inconclusive: -31.5% [inhibitor],–
COc1ccc(CN(C)CC(=O)NC(=O)NCc2ccccc2)cc1OC,–,"inconclusive [inhibitor, single point]"
CN(C1CCCCC1)S(=O)(=O)c1cccc2nsnc12,–,"inconclusive [inhibitor, single point]"
COC(=O)N/N=C/c1c(C)c(C(=O)c2ccc(F)cc2)n2ccccc12,–,"inconclusive [inhibitor, single point]"

Structure (SMILES),"activity change, negative = growth inhibition",Potency
C=C1c2nc3ccccc3n2C=C(c2ccc(C)cc2)N1c1ccccc1,–,active: 13 µM
COc1ccc(OC)c(/C=C/C(=O)N2C(=O)c3cccc(N)c3C2=O)c1,–,active: 5.17 µM
Cc1cc2nc(N3CCN(C(=O)c4ccco4)CC3)sc2cc1C,–,active: 20.6 µM
CC(=O)Nc1cccc(-c2ccnc3c2CC(C)(C(=O)Nc2cccc(OC(F)(F)F)c2)O3)c1 (stereo not drawn),–,"inconclusive [inhibitor, single point]"
Nc1ncnc2c1ncn2[C@@H]1O[C@H](C(=O)Nc2cc(C(F)(F)F)cc(C(F)(F)F)c2)[C@@H](O)[C@H]1O,–,"inconclusive [inhibitor, single point]"
COc1ccc(CN2C(=O)C(CC(=O)NC3CCCC3)CC(C(=O)N(C(C)C)C(C)C)=C2C)cc1 (stereo not drawn),–,"inconclusive [inhibitor, partial curve]"
COC(=O)N(NC(=O)C(O)(CCC(C)C)CCC(C)C)c1ccccc1,–,inactive
CCOC(=O)c1ccc(NC(=O)c2cc3c(C)nn(-c4ccccc4Cl)c3s2)s1,–,"inconclusive [inhibitor, single point]"
COc1cccc2c1C(=O)c1c(O)c3c(c(O)c1C2=O)C[C@@](O)(C(=O)CO)C[C@@H]3O[C@H]1C[C@H](N)[C@H](O)[C@H](C)O1,–,inactive and active: 106 nM and active: 20.6 nM
CCOc1ncccc1C(=O)OCC(=O)Nc1ccc(S(=O)(=O)N2CCCC2)cc1,–,inactive
CC(C)(C)c1ccc(C(=O)N2CCN(CCNC(=O)C(=O)NCc3ccccc3)CC2)cc1,–,"inconclusive [inhibitor, single point]"
Cn1cc(C(=O)N/N=C/C2=C(N3CCOCC3)C(=C\c3ccccc3)/CC2)ccc1=O,–,"inconclusive [inhibitor, partial curve]"
O=C1C=C(c2ccc(Oc3ccccc3)cc2)C[C@@H](c2ccc(F)cc2)C1,–,"inconclusive [inhibitor, single point]"
COc1ccc([C@H]2C[C@@H](O)[C@H](n3cc(C4CC4)nn3)CN2C(=O)c2cccs2)cc1,–,"inconclusive [inhibitor, single point]"
Cc1ccc(-c2csc(NC(=O)Cn3cnc4c3c(=O)n(C)c(=O)n4C)n2)cc1C,–,"inconclusive [inhibitor, partial curve]"
O=C(Nc1ccc(OC(F)(F)F)cc1)C1CCN(S(=O)(=O)c2ccc3[nH]c(=O)ccc3c2)CC1,–,"inconclusive [inhibitor, full curve, poor fit]"
O=C(c1cnn2c1NC(c1ccco1)CC2C(F)(F)F)N1CCN(c2cccc(Cl)c2)CC1 (stereo not drawn),–,active: 8.2 µM
O=C(c1cc2cc(Cl)ccc2o1)N1CCCCCC1,–,"inconclusive [inhibitor, partial curve, poor fit]"
O=c1[nH]cc(S(=O)(=O)c2ccccc2)[nH]1,–,"inconclusive [inhibitor, single point]"
CCS(=O)(=O)c1nc(S(=O)(=O)c2ccc(C)cc2)c(N2CCC(O)CC2)s1,–,inactive
Cc1ccc(Nc2cc(C)nc(-n3nc(C)cc3C)n2)cc1,–,active: 3.66 µM
Cc1cc(OCCOCCNC(C)C)cc(C)c1Cl,–,active: 18.4 µM
O=C(c1cc(C(F)(F)F)cc(C(F)(F)F)c1)N1CCC2(CC1)CN(c1ccccn1)C2,–,active: 5.17 µM

Structure (SMILES),"activity change, negative = growth inhibition",Potency
O=C(NCc1cn2ccsc2n1)Nc1ccc(Cl)cc1,–,inactive
CCSc1nnc(NC(=O)C(Cc2ccccc2)n2cccc2)s1 (stereo not drawn),–,inactive
Cc1cccc(N2CCN(S(=O)(=O)c3c(C)[nH]c(C)c3C(=O)N3CCCCC3)CC2)c1C,–,"inconclusive [inhibitor, single point]"
CCc1ccc(OCCOCC(O)CN(CCO)CCO)cc1 (stereo not drawn),–,inactive
CCOc1ccc(CNC(=O)c2ccc3c(c2)sc2nc(-c4ccccc4)cn23)cc1,–,inactive
Cn1cnc(S(=O)(=O)N2CCC(C(=O)Nc3ccc(F)cc3F)CC2)c1,–,inactive
COc1ccc2c(c1)[C@H]1[C@H](CO2)[C@H](c2ccccc2)[C@]2(C)C(=O)Nc3cc(F)c(F)cc3C(=O)N12,–,"inconclusive [inhibitor, single point]"
COc1ccc(OC)c(NC(=O)C2(C)CCN2Cc2ccc(OC)c3ccccc23)c1 (stereo not drawn),–,"inconclusive [inhibitor, single point]"
CCOCCc1nnc(NC(=O)C(=O)c2cc(C)n(-c3cccc(C)c3)c2C)s1,–,"inconclusive [inhibitor, single point]"
C/C(CCS(=O)(=O)c1ccccc1)=N/O,–,inactive
COc1ccc(N2CCN(C(c3cc4ccc(C)cc4[nH]c3=O)c3nnnn3C3CCCC3)CC2)cc1 (stereo not drawn),–,"inconclusive [inhibitor, single point]"
COc1ccc(N2CCN(C(=O)C(=O)c3cccc([N+](=O)[O-])c3)CC2)cc1,–,"inconclusive [inhibitor, single point]"
CN(C)c1nc(N)c([N+](=O)[O-])c(NCCO)n1,–,inactive
N#Cc1ccccc1COC(=O)c1ccc2c(c1)OCO2,–,"inconclusive [inhibitor, partial curve, poor fit]"
Cc1cc(CNC(=O)c2ccc(C)c([N+](=O)[O-])c2)c2ccccc2n1,–,active: 9.2 µM
CC(=O)N(C)c1ccc(NCc2cc(=O)oc3cc(C)c(O)cc23)cc1,–,"inconclusive [inhibitor, partial curve, poor fit]"
Cc1cc2oc(=O)cc(CN3CCN(S(=O)(=O)/C=C/c4ccccc4)CC3)c2cc1C,–,"inconclusive [inhibitor, single point]"
Cc1ccc(C(=O)N2CCCC2)cc1S(=O)(=O)Nc1cccc(C)c1C,–,"inconclusive [inhibitor, single point]"
O=C(Nc1ccccc1)C1=C[C@@H](c2coc3ccccc3c2=O)C[C@@H](OCc2ccc(CO)cc2)O1,–,active: 14.6 µM
Cc1ccc(SCCNC(=S)Nc2ccccc2)cc1,–,"inconclusive [inhibitor, single point]"
Cc1ccc(-n2nc(C(=O)N3CCN(c4ccc(F)cc4)CC3)c(=O)n(C)c2=O)cc1,–,inactive
CC1(C)CC2CC(C)(CN2S(=O)(=O)c2ccc(C(=O)Nc3cc(S(=O)(=O)N4CCOCC4)ccc3Cl)cc2)C1 (stereo not drawn),–,active: 2.91 µM
